According to PubChem BioAssay AID903 (National Center for Advancing Translational Sciences (NCATS), 2007):
Among all 55,000 compounds or so, about 340 (0.62%) were called active. This list was built around the results that the source calls inconclusive (neither active nor inactive); the mix of calls is not that of the screen. Calls follow the shape of the dose curve; as a rule, active = well fitted cell-killing curve with a large enough effect; inconclusive = small, poorly fitted or top-dose-only effect; inactive = no such curve, though single readings can be large or run the other way. Potencies beside an inconclusive call are fits to weak or partial responses and may not hold up.

Experiment: qHTS Screen for Compounds that Selectively Target Cancer Cells with p53 Mutations: Cytotoxicity of p53 Null Cells at the Permissive Temperature; also: nearly all actives have a fitted effect of over 55% in size;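 as to activity change, negative = cytotoxicity: 0% = DMSO only and -100% = full killing by 100 µM tamoxifen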
Settings: H1299-neo p53 null cells, ATP luminescence, 24 h, 32C; series mostly up to 46.1 µM; activity change, negative = cytotoxicity: at the top concentration
Outline: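 H1299-neo (p53 null) cells, 600/well, treated 24 h at 32C with compound up to 46 uM; ATPlite luminescence viability, normalized to DMSO and 100 uM tamoxifen; AC50 by Hill fit.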
Potency is read from the fitted curve at half-maximal effect; tags tell the direction and shape of the fitted curve.

SMILES | Potency | activity change, negative = cytotoxicity
COc1ccc(CCNC(=O)CCCn2c(=O)c3ccccc3n(CC(=O)Nc3ccc(C)cc3Cl)c2=O)cc1OC | inconclusive: 31.6 µM [cytotoxic, single point] | 
COc1ccc(-c2nsc(NC(=O)c3ccccc3Br)n2)cc1 |  | inactive: 1.91%
Cc1nnc(N2CCN(C(=O)Nc3cc(F)ccc3F)CC2)c2nn(-c3ccc(Cl)cc3)c(C)c12 | inconclusive: 31.6 µM [cytotoxic, single point] | 
Cc1cccc(C)c1NC(=O)CSc1nc(-c2cccs2)cc(C(F)(F)F)n1 |  | inactive: 9.27%
CC1CCN(C(=O)Cn2c(=O)n(-c3ccc(Cl)cc3)c(=O)c3c4c(sc32)CCC4)CC1 |  | inactive: 0.896%
CN(Cc1ccccc1)C(=O)CSc1c2c(nc3ccc(Cl)cc13)CCCC2 | inconclusive: 35.5 µM [cytotoxic, single point] | 
COc1ccc(CNC(=O)CCc2c(C)nn(-c3ccc(N4CCOCC4)nn3)c2C)c(OC)c1 |  | inactive: -2.16%
CCOC(=O)c1ccc(NC(=O)CN2C(=O)C(C)(C)c3ccccc32)cc1 | inconclusive: 6.31 µM [cytotoxic, single point] | 
COC(=O)c1cc2oc3ccccc3c2n1Cc1cccc(C)c1 | inconclusive: 5.01 µM [cytotoxic, full curve, poor fit] | 
COC1(OC)C(/C=C/c2ccc(Cl)cc2)C(C#N)(C#N)C1(OC)OC (configuration not stated) | inconclusive: 35.5 µM [cytotoxic, single point] | 
COc1ccc(-c2cc(=O)n3[nH]cnc3n2)cc1 | inconclusive: 20 µM [cytotoxic, partial curve] | 
O=C(CSc1nnc(NC(=O)NC2CCCCC2)s1)Nc1ccccc1F | active: 10 µM | 
O=C(CCS(=O)(=O)c1cccc2nonc12)Nc1ccc(Br)cc1 | inconclusive: 0.01 µM [cytotoxic, full curve, poor fit] | 
Cc1ccc(NC(=O)c2c(NC(=O)C(F)(F)F)sc3c2CCCCC3)cc1 | inconclusive: 0.316 µM [cytotoxic, partial curve, poor fit] | 
O=C(CSc1nccn1Cc1ccccc1)Nc1ccc2c(c1)OCCO2 | inconclusive: 12.6 µM [cytotoxic, single point] | 
O=C(Nc1ccc(C(F)(F)F)cc1)C(Cc1ccccc1)n1cccc1 (configuration not stated) | inconclusive: 8.91 µM [cytotoxic, full curve, poor fit] | 
CC1=C(C(=O)OC2CCCC2)C(c2ccccc2C(F)(F)F)CC(=O)N1 (configuration not stated) |  | inactive: -5.81%
CCOc1ccc2c(c1)c(=O)c(S(=O)(=O)c1ccc(C)cc1)cn2Cc1ccccc1Cl | inconclusive: 3.55 µM [cytotoxic, single point] | 
COC(=O)c1ccc(NC(=O)CCc2c(C)nn(-c3ccc(N4CCCCC4)nn3)c2C)cc1 | inconclusive: 10 µM [cytotoxic, partial curve] | 
CC(C)NC(=O)c1cc2c(s1)CCCC2 | inconclusive: 12.6 µM [cytotoxic, partial curve] | 
CCC(=O)Nc1cccc(-c2nc3cc(C)ccc3o2)c1 | inconclusive: 14.1 µM [cytotoxic, partial curve] | 
COC(=O)c1ccccc1NC(=O)CCS(=O)(=O)c1nc(-c2ccc3c(c2)OCO3)cc(C(F)(F)F)n1 |  | inactive: -21.2%
Cc1ccc(-c2cc(C(=O)Oc3ccc(C#N)cc3)no2)cc1 | inconclusive: 12.6 µM [cytotoxic, partial curve] | 

SMILES | Potency | activity change, negative = cytotoxicity
O=C(Nc1ccc2nc(SCC(=O)N3CCOCC3)sc2c1)c1cccc(Br)c1 | inconclusive: 31.6 µM [cytotoxic, single point] | 
Cc1cc(C)c(Nc2ncnc3c2cnn3C)c(C)c1 |  | inactive: 11.8%
CC(=O)c1ccc(N2CCN(S(=O)(=O)c3ccc(-c4coc(C)n4)cc3)CC2)cc1 |  | inactive: -10.9%
CCOc1ccc(N2CC(c3nc4ccccc4n3CCOc3ccccc3OC)CC2=O)cc1 (configuration not stated) |  | inactive: 14.4%
COC(=O)Cc1csc(Nc2ccccc2Cl)n1 | inconclusive: 7.08 µM [cytotoxic, partial curve, poor fit] | 
Cc1ccc(CNC(=O)c2ccc(Cn3c(=O)c4ccccc4n(CC(=O)Nc4c(C)cc(C)cc4C)c3=O)cc2)cc1 | inconclusive: 12.6 µM [cytotoxic, partial curve] | 
Cc1ccccc1CSc1ccc(-c2cccs2)nn1 | inconclusive: 12.6 µM [cytotoxic, partial curve] | 
Cc1ccc(Cc2cn3cc(-c4ccc(F)cc4)nc3s2)cc1 | inconclusive: 7.94 µM [cytotoxic, partial curve] | 
COc1cccc(-c2cn3ncsc3n2)c1 | inconclusive: 10 µM [cytotoxic, partial curve] | 
COc1ccccc1C(=O)Nc1ccc(C(=O)OCc2cc(=O)n3nc(C)sc3n2)cc1 | inconclusive: 0.158 µM [cytotoxic, full curve, poor fit] | 
Cc1ccc(CNc2nc(-c3ccco3)nn2C(=O)c2ccccc2[N+](=O)[O-])cc1 | inconclusive: 20 µM [cytotoxic, partial curve] | 
COc1ccc(Cn2c(SCc3ccc(C(=O)NC4CCCCC4)cc3)nc3ccncc32)cc1 |  | inactive: 0.447%
CCC(C(=O)NC1CCCCC1)n1c(SCc2ccccc2F)nc2ccncc21 (configuration not stated) | inconclusive: 12.6 µM [cytotoxic, partial curve] | 
COc1ccc(NC(=O)CSc2nc3ccccc3nc2N2CCOCC2)c(OC)c1 |  | inactive: 9.99%
CCCCc1ccc(C(=O)c2c(N)c(C(=O)Nc3cccc(OC)c3)c3ccccn23)cc1 |  | inactive: 0.125%
COc1cc(OC)c(NC(=O)C2=C(C)C(=O)OC23CCN(C(C)=O)CC3)cc1Cl |  | inactive: -3.12%
Cc1cccc(C)c1Nc1sc(C(=O)c2ccccc2)c(N)c1S(=O)(=O)c1ccccc1 |  | inactive: 29%
CCc1nc(C)ccc1OC(=O)C12CC3CC(CC(C3)C1)C2 | inconclusive: 20 µM [cytotoxic, partial curve, poor fit] | 
Brc1cccc(-c2nnn3c2nc(NC2CCCCC2)c2ccccc23)c1 | inconclusive: 3.16 µM [cytotoxic, single point] | 
Cc1ccc(-n2c(=O)c3ccc(C(=O)NCc4ccco4)cc3n(Cc3ccccc3Cl)c2=O)cc1 |  | inactive: 16.4%
COc1ccc(Nc2nc3c(S(=O)(=O)c4ccccc4)nnn3c3ccc(Cl)cc23)cc1 | inconclusive: 0.02 µM [cytotoxic, full curve, poor fit] | 
CCOC(=O)c1cccc(-c2ccc(C=O)o2)c1 | inconclusive: 0.447 µM [cytotoxic, full curve, poor fit] | 
COc1ccc(Br)cc1CNC(=O)Cn1nc(C)n2c(cc3cc(F)ccc32)c1=O | inconclusive: 10 µM [cytotoxic, partial curve, poor fit] | 

SMILES | Potency | activity change, negative = cytotoxicity
COC(=O)c1ccc(NC(=O)c2cnn(-c3ccc(Cl)cc3)c2C2CCN(C(=O)OC(C)(C)C)CC2)cc1 |  | inactive: 16.5%
Cc1ccc(CN2CCN(C3CCN(C(=O)OC(C)(C)C)CC3)C(=O)C2=O)cc1 | inconclusive: 5.62 µM [cytotoxic, single point] | 
Cc1cccc(NC(=O)C2CCCN(S(=O)(=O)c3c(C)noc3/C=C/N(C)C)C2)c1C (configuration not stated) | inconclusive: 3.16 µM [cytotoxic, partial curve] | 
Cc1ccc(NC(=O)CSc2nc3ccccc3c3nc(CCn4c(C)nc5ccccc54)nn23)cc1F | inconclusive: 31.6 µM [cytotoxic, single point] | 
CN(C(=O)CSc1nnc2[nH]c(=O)cc(-c3ccccc3)n12)c1ccccc1 | inconclusive: 10 µM [cytotoxic, partial curve] | 
CCOC(=O)c1ccc(NC(=O)c2oc3ccc4c(c3c2C)C(=O)CC(C)(CC)O4)cc1 (configuration not stated) | inconclusive: 2.51 µM [cytotoxic, full curve] | 
Cc1nnc(NC(=O)c2nc(S(=O)(=O)Cc3ccccc3)ncc2Cl)s1 | inconclusive: 20 µM [cytotoxic, single point] | 
COc1ccc(/C=C/c2nc(C#N)c(N3CCN(c4ccccc4)CC3)o2)cc1OC |  | inactive: -4.65%
COc1cc(C(=O)Nc2cc(C)ccc2OCc2cc(=O)n3cc(C)sc3n2)cc(OC)c1OC |  | inactive: 0.906%
Cc1ccc(-n2ncc3c(N4CCCCCC4)ncnc32)cc1 | active: 3.16 µM | 
CCc1cccc(NC(=O)Nc2ccc3c(c2)N(C)C(=O)c2ccccc2S3)c1 |  | inactive: 6.73%
c1ccc(-n2ncc3c(NC4CCCC4)ncnc32)cc1 | active: 15.8 µM | 
Cc1ccc(NC(=O)c2cccc(NC(=O)/C=C/c3ccco3)c2)cc1C | inconclusive: 17.8 µM [cytotoxic, single point] | 
CCc1ccc(-n2c(SCc3ccccc3F)nc3[nH]ncc3c2=O)cc1 | inconclusive: 31.6 µM [cytotoxic, single point] | 
Cc1ccc(C)c(N2CCN(c3cnn(-c4nc5ccccc5s4)c(=O)c3Cl)CC2)c1 | inconclusive: 10 µM [cytotoxic, partial curve, poor fit] | 
CCc1ccccc1NC(=O)c1nnn(-c2ccc(F)cc2)c1C | inconclusive: 10 µM [cytotoxic, partial curve] | 
COc1ccc(NC(=O)c2c(NC(=O)C(F)(F)F)sc3c2CCCCC3)cc1 | inconclusive: 0.398 µM [cytotoxic, single point] | 
COc1cccc2cc(C(=O)Nc3ccc(CC(=O)O)cc3)c(=O)oc12 | inconclusive: 3.16 µM [cytotoxic, full curve] | 
CCC(=O)NCCc1nc2cc(NC(=O)c3cccc(Br)c3)ccc2n1C | active: 12.6 µM | 
CCN(CC)C(=O)c1ccc2c(c1)N(Cc1ccc(C(F)(F)F)cc1)C(=O)c1ccccc1S2 |  | inactive: 33.4%
CCOC(=O)C1CCN(C(=O)Cn2nc(CC)n3c(cc4sccc43)c2=O)CC1 | inconclusive: 0.0112 µM [cytotoxic, full curve, poor fit] | 
